These results are taken from patent publication US4469706A, “Selective beta-2 adrenergic antagonists for the treatment of glaucoma” (priority 1982, dated 1984).

The structures appear in SMILES notation. Counter-ions that a name gives are not always drawn.

The experiment deals with lung adenylate cyclase. Kind of experiment: Lung adenylate cyclase activation and inhibition. The class given is biochemical, mammalian. The following applies: for Ki: antagonists, Table I column F, ** data from the present inventor, method (a).

In turn, `CC(C)(C)NCC(O)CON=C1c2ccccc2-c2ccccc21` (stereo not drawn) [IPS 339, (t-butyl-amino 3-ol-2-propyl) oximino-9 fluorene, hydrochloride] had a Ki of 90 nM.

The compound `COc1ccc(OC)c(C(O)C(C)NC(C)(C)C)c1` (stereo not drawn) [Butoxamine] had a Ki of 4500 nM. In addition, for the setting “adenylate cyclase Ki values”, the “β2/β1 potency ratio (Ki heart/Ki lung)” value stood at 3.3.

In general, Ki refers to a dissociation constant, usually derived from enzyme kinetics or from competition with a known ligand. The low end stands for a stronger hold on the target, the high end for a looser hold on the target.
